According to the supplement of paper PMC11417369:
Some of the results follow.

System: PfHDP1 homeodomain (GST-tagged)
Test: gcPBM binding intensity (ln(normalized median fluorescence intensity)); higher = stronger DNA binding
Method in brief: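 Each value is the highest Masliner-normalised natural-log median intensity across replicate spots of either orientation of a probe. The probes were primer-extended double-stranded 36-bp intergenic genomic sequences on an Agilent 4 × 180k array, alongside negative controls, exposed for 1 h to GST-tagged P. falciparum DNA-binding domains expressed in E. coli. Bound protein was picked up with Alexa488 anti-GST antibody and scanned at 488 nm.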

| Sequence | gcPBM binding intensity (ln) |
| --- | --- |
| CATAATAGTTATAAAATACACACCAGGCATGATAAA [CACACA_site329] | 6.19 |
| AAAAAAAAAAAAAAAAGTACTCAATAATAATTACAT [XGTACX_site670] | 6.63 |
| TTTTTTTTTTCTACAAGTACATATTTTCATTTAACA [XGTACX_site6621] | 6.37 |
| AAATTAAAAAAAAATAAATAAAAAAAAAAAAAAAAT [CACACA_negctrl_site1611] | 6.28 |
| AAAAAAAAAAAAAAATGTACATATATATATTATAAA [XGTACX_site518] | 6.33 |
| ATAAATACATATAAAAGTACACACACACACATATAT [XGTACX_site1744] | 7.05 |
| ATGTGCAAATATTAAAGTACTAAATTTTATTATTTT [XGTACX_site7306] | 11.3 |
| TGTATATGTGAAGCAAGGGATGCGGCAGACATAACA [CACACA_negctrl_site1339] | 6.51 |
| TGAAATTTCAATACATGTACATATAAAAAAAAAAAA [XGTACX_site4424] | 6.83 |
| ATGTTTTTTATTCTTCGTACGTATGAACGATAGTGT [XGTACX_site4225] | 6.71 |
| CATTATTATTTTATAACACACACATATATATTATAT [CACACA_site8405] | 6.75 |
| TATAAAATAAGACATGCATGTTATACATATATATTT [TGCATGCA_site156] | 6.51 |
| AAACGTATGTTATTTACACACCCTTCCACTTTTATA [CACACA_site3337] | 6.66 |
| TTTGTGTATATATAATGTACATTATATTTTTATTAT [XGTACX_site6506] | 7.35 |
| AAAAAAAATATACATACATGCATACATAAGTTTCTA [TGCATGCA_site998] | 6.12 |
| TATATATATGGACACACACACACATATATATATATA [CACACA_site6121] | 9.18 |
| ATTAAAAAAAAAGAGCGTACAAATAATTACTTCTTT [XGTACX_site8262] | 6.04 |
| TATAAATTTATAAATAGTACATATATTTATATATAT [XGTACX_site6433] | 6.54 |
| AAAAAAAAAAAAATTACACACATACATATAATAATA [CACACA_site8680] | 6.41 |

| Sequence | gcPBM binding intensity (ln) |
| --- | --- |
| ATATTAAGAATAAACAGTACATATAATAAATACCAT [XGTACX_site5933] | 6.6 |
| GGGTATATATTATTATGTACACATGTATAAAATAAG [XGTACX_site2633] | 6.59 |
| ATATTACATAATATATGTACACACGCAAATACTTAT [XGTACX_site671] | 6.82 |
| CAGATAGACTTATATGCATGCATTCACCTGCCAACA [TGCATGCA_site158] | 6.9 |
| ATGAAATTATATTGGGGTACGTCAAAAAAGGAGATA [XGTACX_site7451] | 7.14 |
| TAAGCATAAATGTATACATGCGATGCATACACATAT [TGCATGCA_site749] | 6.75 |
| TAAATAATATAATTATGTACGTATTTCTTTATTTTA [XGTACX_site8410] | 5.94 |
| GCTGAAAATAAATGAAGTACACAAGTAATATATATA [XGTACX_site6205] | 7.12 |
| TTTTTTTTTTAATTAACACACATAAATATAAATATA [CACACA_site7527] | 6.37 |
| AAAAAAAAAAAAAAAAGTACATATGCTCAAGAGATG [XGTACX_site3783] | 7.4 |
| TATATATATATATATACATGCATCATTGTTCACCTT [TGCATGCA_site177] | 9.22 |
| TAATATTGACTATATACACACATATAAATATAAATA [CACACA_site6414] | 6.53 |
| CATTCAAAGAAAAACAGTACGTGTAGCAAAAGGCCT [XGTACX_site266] | 7.27 |
| GAAAAAAGAAATTTATGTACATACATATATATATAT [XGTACX_site7888] | 9.1 |
| ATATGTAAAATATGGGGTACGAAGGTAGGTAGGTAA [XGTACX_site1392] | 7.59 |
| TAAGCCACCATATTTACACACACATCAAAATGTATT [CACACA_site1815] | 6.65 |
| ATTCTATATGTTACATAAACCTATATTTTTTTTTTT [CACACA_negctrl_site860] | 6.88 |
| ATAAAGCCATACAATACACACATTTTACATGTCGGT [CACACA_site3265] | 6.43 |
| ATATATATATATATGTGTACATATTAGTGATATAAT [XGTACX_site7161] | 9.28 |

| Sequence | gcPBM binding intensity (ln) |
| --- | --- |
| AATGCGCATTTTTTTTTTTTTTTTTTTTTTTTTTTT [XGTACX_negctrl_site258] | 7.42 |
| TATAAATATAAATACTGTACATTATATTATATAATA [XGTACX_site2480] | 6.26 |
| CGTTACACAAAAATATGTACATATATACATATATAT [XGTACX_site4631] | 6.83 |
| TAAAAATAATATTAATGTACATTACATATTAATATA [XGTACX_site1019] | 6.35 |
| TATTCCCCCAAACACACACACACACCCACATACCAC [CACACA_site2304] | 7.16 |
| TTGTATTTACTATACACACACATACATACATACATA [CACACA_site4603] | 6.91 |
| AATGGGATCATGGTATGTACTTACACAAATGAATTA [XGTACX_site5389] | 6.32 |
| TGAATAAAATATTATACACACATATGTATTTAACAT [CACACA_site4694] | 6.61 |
| ATCATTTAAACAATATGTACTCATTGTAGATATGGT [XGTACX_site5088] | 6.54 |
| AATATAAATGTGATTACACACAACAGATTTAAATGG [CACACA_site4802] | 6.56 |
| TTATTTTTTAATTATATTCAAAATTAAAAAAAAAAA [XGTACX_negctrl_site226] | 5.95 |
| ATTAAAAAAAAAAAAAAAAAAAAAAAAAAAAAAAAA [CACACA_negctrl_site1060] | 6.3 |
| ATTGATAAATTAACTAGTACACATATAAATATATTA [XGTACX_site2325] | 6.21 |
| TATACGTGTTTTATTTGTACTTAAGCAGGTAAGCAT [XGTACX_site193] | 6.39 |
| CTATATATTTTTTCTTAACACACATATATAAAATAA [CACACA_site9165] | 6.64 |
| TATATTTATTTTCTGTGTACACATATGTTGTGTATT [XGTACX_site7640] | 7.98 |
| TATATGTATCCATTATGTACATAATAGTAATATAAT [XGTACX_site4008] | 6.66 |
| TAAAAAATACAAGAGTGTACAAAATTTTTCTAAATG [XGTACX_site5334] | 6.58 |
